# PubChem BioAssay AID463173 (ICCB-Longwood Screening Facility, Harvard Medical School, 2010)
# Hit rate of the full screen: of about 52,000 compounds, about 1,700 (3.3%) were called active. Cut-off read from the data, not from the text of the source: active = survival mostly below about 52% (no sharp cut-off); inactive = mostly above about 56%. Some of the results follow.
# Test system: Wild type
# Test: S. aureus survival, RN4220 and DeltatarO strains – OD600, teichoic acid synthesis inhibitors, primary screen (AID 463173)
# Conditions: S. aureus RN4220 wild type/DeltatarO growth, OD600, 18 h, hits give low values, screened at 18.75 µg/mL (by protocol)
row,SMILES,survival
1,CCOc1nc(NC(=O)NS(=O)(=O)Oc2cccc(F)c2)nc(-c2ccccc2)n1,inactive: 82%
2,COc1cccc(-c2ccc3c(N)c(C(=O)Nc4ccc(Cl)cc4F)sc3n2)c1,inactive: 79%
3,CCc1ccccc1NC(=O)Cc1ccc(-n2c(C)nc3cccnc32)cc1,inactive: 119%
4,COc1ccc(OC)c(NC(=O)Cc2c(C(=O)O)[nH]c3ccc(Cl)cc23)c1,inactive: 57%
5,Cc1ccc(C2=Nc3ccccc3N(CC(=O)NCc3ccc(Cl)cc3)C(=O)C2)cc1C,inactive: 66%
6,N/C(=N/OC(=O)c1ccccc1)c1ccccn1,inactive: 86%
7,O=C(CSc1oc(-c2ccccc2)nc1S(=O)(=O)c1ccc(Br)cc1)NC1CCCCC1,inactive: 74%
8,O=C(O)C1CCN1C1CCCCC1 (centres undefined),inactive: 99%
9,Cc1cccc(CSc2nc3cccnc3n2Cc2ccc(C(=O)NCc3cccs3)cc2)c1,inactive: 78%
10,NC(=O)Cn1c2[n+](c3ccccc31)CC(O)CS2 (centres undefined),inactive: 107%
11,O=C(c1ccccc1N=Nc1c(O)[nH]c(=O)[nH]c1=O)N1CCOCC1,inactive: 95%
12,O=C(c1ccc(Cl)cc1)N1CCCCC1CCN1CCOCC1 (centres undefined),inactive: 108%
13,Cc1ccc(C)c(N2CCN(C(=O)c3cc4c(=O)n(Cc5cccnc5)ccc4nc3C)CC2)c1,inactive: 64%
14,COc1ccc(NC(=O)CSc2nc3ccccc3n2CC(=O)N2CCCC(C)C2)cc1 (centres undefined),inactive: 78%
15,Cc1ccc(NC(=O)c2cc3c(Cl)nc4ccc(C)cc4c3s2)c(Cl)c1,inactive: 73%
16,Cc1cccc(C(=O)Nc2c(-c3ccc(F)cc3)nc3ccccn23)c1,inactive: 89%
17,Cc1cc(C)n(-c2nc3cc(Cl)c(Cl)cc3nc2Nc2ccc(F)cc2C)n1,inactive: 82%
18,CCn1c(=O)c2cc(C(=O)Nc3cc(C)c(Cl)cc3OC)sc2c2ccccc21,inactive: 66%
19,COc1ccc(CNC(=O)c2cc(-c3cccs3)nc3ccccc23)c(OC)c1,inactive: 107%
20,CCOc1ccccc1N1CC(c2nc3ccccc3n2CCOc2ccc(OC)cc2)CC1=O (centres undefined),inactive: 51%

row,SMILES,survival
1,CC(=O)N(Cc1cccnc1)c1nc2c(C)cc(C)cc2s1,inactive: 81%
2,Cc1ccc(NC(=S)N(Cc2ccco2)Cc2cc3cc(C)c(Cl)cc3[nH]c2=O)cc1,inactive: 108%
3,Cc1nnc(N2CCCC(C(=O)Nc3ccccc3C(F)(F)F)C2)c2nn(-c3ccccc3)c(C)c12 (centres undefined),inactive: 125%
4,CC1CCc2c(sc3nnn(Cc4ccccc4)c(=O)c23)C1 (centres undefined),active: 0%
5,Cc1ccc(-c2nc3ccccn3c2Nc2c(C)cccc2C)o1,active: -20%
6,Cc1ccc(NS(=O)(=O)c2ccc3[nH]c4c(c3c2)CCCC4)c(C)c1,inactive: 82%
7,NC(=O)N(CCC(=O)O)c1ccccc1,inactive: 109%
8,CCOc1ccc(NC(=O)Cn2cc(C(=O)c3ccccc3)c(=O)c3cc(OC)ccc32)cc1,inactive: 63%
9,O=C(Cc1ccc(F)cc1)NCCc1csc2nc(-c3ccc(Cl)cc3)nn12,inactive: 66%
10,CC(=O)N1C(=O)/C(=C2\SC(=S)N(C(C)C(=O)O)C2=O)c2ccccc21 (centres undefined),inactive: 110%
11,CCN1C(=O)c2ccccc2S(=O)c2ccc(C(=O)N3CCN(c4cccc(Cl)c4)CC3)cc21 (centres undefined),inactive: 84%
12,COC(=O)c1cc(NC(=O)CCc2c(C)nc3nc(C)nn3c2C)cc(C(=O)OC)c1,inactive: 72%
13,COC(=O)C1=C(C)Nc2nc3ccccc3n2C1c1ccccc1 (centres undefined),inactive: 91%
14,c1ccn(-c2ccc(N3CCOCC3)cc2)c1,inactive: 112%
15,CCCCn1c(SCc2ccccc2C#N)nc2c(sc3ccccc32)c1=O,active: 14%
16,CC1=C(C(=O)Nc2ccccc2C)C(c2ccc[nH]2)n2ncnc2N1 (centres undefined),inactive: 99%
17,Cc1ccc(-n2ncc3c(=O)n(Cc4cccc(C(F)(F)F)c4)cnc32)cc1C,inactive: 90%
18,Cc1cccc(CC(=O)Nc2cccc(-c3cn4cccnc4n3)c2)c1,inactive: 78%
19,CC1=C(C)NC(=S)SC1,inactive: 111%
20,CCOC(=O)Cn1c(=O)cc(C)c2c(C)nn(-c3cccc(F)c3)c21,inactive: 72%

row,SMILES,survival
1,Cc1ccc2c(c1)-c1onc(C(=O)N(C)c3ccc(F)cc3)c1CO2,inactive: 82%
2,CCc1ccc(S(=O)(=O)Nc2ccc3oc(C)c(C(=O)OCCOC)c3c2)cc1,inactive: 60%
3,O=C(Cc1ccccc1)NCc1ccccn1,inactive: 90%
4,COc1ccc(CNC(=O)C2CCN(S(=O)(=O)Cc3ccccc3)CC2)cc1,inactive: 114%
5,Cc1cccc(NC(=O)c2cc3c(C)nn(-c4ccccc4)c3s2)c1,active: -2%
6,CCOC(=O)c1[nH]c(C)c(C(=O)NCc2ccccc2Cl)c1C,inactive: 114%
7,O=C(NCc1ccc2c(c1)CCN2C(=O)c1ccncc1)c1cccc(F)c1,inactive: 80%
8,COc1ccc(NC(=O)c2ccc(-c3nc(CSc4ccccc4)c(C)o3)cc2)c(OC)c1,inactive: 76%
9,CCCCN(c1ccccc1)S(=O)(=O)c1cc2c3c(c1)C(C)C(=O)N3CCC2 (centres undefined),inactive: 73%
10,O=C(CCc1nnc2n(Cc3ccccc3Cl)c(=O)c3ccccc3n12)Nc1ccccc1,inactive: 95%
11,CCOC(=O)C1CCCN(S(=O)(=O)c2cc(Br)cc3c2N(C(=O)CC)CC3)C1 (centres undefined),inactive: 62%
12,CCOc1ccc(C2c3[nH]c4ccccc4c3CCN2C(=O)CCC2CCCC2)cc1 (centres undefined),inactive: 97%
13,Cc1nn(-c2ccc(N3CCCCC3)nn2)c(C)c1CCC(=O)Nc1cccc(F)c1,inactive: 72%
14,Cc1ccn2c(=O)c(NC(=O)c3cccc([N+](=O)[O-])c3C)c(C)nc2c1,inactive: 65%
15,CCN(CCCNC(=O)CN1N=C(c2ccc(C)cc2)CCC1=O)c1ccccc1,active: -2%
16,O=c1cc(-c2ccccc2)nc(SCc2nc(-c3cccc(C(F)(F)F)c3)no2)[nH]1,inactive: 83%
17,Cc1ccc(COC(=O)c2ccc(-c3nnn(Cc4ccc(C)cc4)n3)cc2)cc1,inactive: 76%
18,Fc1ccc(-n2ncc3c(NCCCc4ccccc4)ncnc32)cc1,inactive: 129%
19,CCCCN(CC)C(=O)Cn1cc2c(n1)-c1c(oc(C(=O)N3CCCC3)c1C)CC2,inactive: 85%
